Measured values from paper PMC6919601, “Identification of Plasmodium dipeptidyl aminopeptidase allosteric inhibitors by high throughput screening” (PLoS ONE, 2019).
Among all 110,000 compounds or so, about 230 (0.21%) showed an effect of 50% or more. This is one part of the list.

Target: DPAP1 (Plasmodium falciparum, UniProt Q8IIJ9)
Assay: primary screen, percent inhibition; read by cleavage of a fluorogenic dipeptide substrate; higher = more effect of the substance
Parameters: species or system P. falciparum D10 trophozoite lysates; single well
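Also: 30 min substrate incubation versus DMSO and 10 µM JCP410 controls.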

Sequence of DPAP1 (Q8IIJ9 whole entry, looked up): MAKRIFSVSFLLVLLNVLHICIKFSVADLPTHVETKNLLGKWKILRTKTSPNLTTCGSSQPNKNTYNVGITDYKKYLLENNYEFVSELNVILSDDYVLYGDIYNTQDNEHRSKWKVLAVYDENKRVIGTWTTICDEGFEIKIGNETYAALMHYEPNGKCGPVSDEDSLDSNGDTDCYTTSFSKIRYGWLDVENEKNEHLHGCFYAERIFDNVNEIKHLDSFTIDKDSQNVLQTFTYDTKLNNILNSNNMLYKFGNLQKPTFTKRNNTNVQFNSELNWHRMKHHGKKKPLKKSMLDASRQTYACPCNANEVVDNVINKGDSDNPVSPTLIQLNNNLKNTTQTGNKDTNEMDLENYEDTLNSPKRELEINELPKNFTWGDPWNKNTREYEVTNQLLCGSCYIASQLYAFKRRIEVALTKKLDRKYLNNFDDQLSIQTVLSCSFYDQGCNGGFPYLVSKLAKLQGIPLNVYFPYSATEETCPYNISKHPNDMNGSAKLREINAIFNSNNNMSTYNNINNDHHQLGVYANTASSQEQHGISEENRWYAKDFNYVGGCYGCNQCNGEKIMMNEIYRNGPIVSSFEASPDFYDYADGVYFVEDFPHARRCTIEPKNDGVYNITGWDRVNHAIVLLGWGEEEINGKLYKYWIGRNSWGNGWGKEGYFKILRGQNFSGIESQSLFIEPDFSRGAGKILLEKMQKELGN

First: COC(=O)CCC(=O)NCc1ccccc1
Second: O=C(O)CCC(=O)Nc1ccccc1C(=O)O
The “% Inhibition @ 10 uM” value of the first is higher: -0.274% for the first, -2.55% for the second.

Compared with `COc1ccc(OC)c(NC(=O)c2cccc(C)c2)c1`, `COc1cc(OC)cc(C(=O)N(Cc2nc(-c3cccc(C)c3)no2)C(C)C)c1` is higher in “% Inhibition @ 10 uM” value: -2.19% for the first, 1.66% for the second.

Going from `CCOc1ccc2nc(SCC(=O)Nc3ccccc3)sc2c1` to `CC(=O)Nc1sc(Cl)cc1C(=O)Nc1ccccc1`, the “% Inhibition @ 10 uM” value rises from -0.736% to 1.37%.

Compared with `Cc1ccc(C(CC(=O)O)N2Cc3ccccc3C2=O)cc1` (stereo not drawn), `O=C(O)c1ccc2c(c1)C(=O)N(N1C(=O)c3ccccc3C1=O)C2=O` is lower in “% Inhibition @ 10 uM” value: -4.69% for the first, -5.36% for the second.

Going from `COc1ccc(S(=O)(=O)N2CCCN(S(=O)(=O)c3ccc(OC)cc3)CC2)cc1` to `COc1cc(NS(=O)(=O)c2ccc(NC(=O)Nc3cccc(C)c3)cc2)nc(OC)n1`, the “% Inhibition @ 10 uM” value falls from 3.53% to 2.79%.

Going from `COC(=O)CC1=C(C)C(=O)C=C2C(C)(C)CCC[C@@]21C` to `COc1ccc2c(c1)N(C(N)=S)C(C)(C)C=C2C`, the “% Inhibition @ 10 uM” value falls from 3.48% to -2.32%.

Compared with `CC1CN(Cc2c(O)ccc3c(=O)c(Oc4ccccc4Cl)c(C(F)(F)F)oc23)CC(C)O1` (stereo not drawn), `CC1CN(Cc2ccccc2C(F)(F)F)CC(C)O1` (stereo not drawn) is higher in “% Inhibition @ 10 uM” value: -7.03% for the first, -3% for the second.

Compared with `CSc1ncc(CNCCc2ccc(O)cc2)c(N)n1`, `Cc1ccc2[nH]c(SCc3ccc(F)cc3)nc2c1` is lower in “% Inhibition @ 10 uM” value: 0.324% for the first, -0.0235% for the second.

First: O=[N+]([O-])c1ccc(Sc2cccc3cccnc23)c2nonc12
Second: COc1ccc(-c2noc(-c3ccccn3)n2)cc1
The “% Inhibition @ 10 uM” value of the first is higher: 20.7% for the first, -3.33% for the second.

Compared with `CC(C)NC(=O)C1CCN(S(=O)(=O)N2CCCCCC2)CC1`, `CC(C)(C)OC(=O)N1CCC(c2c(C(=O)NCCN3CCCC3)cnn2-c2ccccc2)CC1` is lower in “% Inhibition @ 10 uM” value: 1.16% for the first, -5.6% for the second.

Compared with `COc1ccc(S(=O)(=O)N(CC(=O)NCc2cccnc2)c2cccc(Cl)c2)cc1`, `CN(CC(=O)NCc1ccccc1Cl)S(=O)(=O)c1ccc2[nH]c(-c3ccccc3)nc2c1` is higher in “% Inhibition @ 10 uM” value: 3.37% for the first, 5.1% for the second.

Going from `Cc1ccc(C(=O)N2CCN(c3ccnc4cc(Cl)ccc34)CC2)cc1` to `O=C(Nc1cccc(Cl)c1)N1CCN(C/C=C/c2ccccc2)CC1`, the “% Inhibition @ 10 uM” value falls from -0.403% to -1.98%.

Compared with `CCCCCC(=O)Nc1nnc(COc2ccccc2)s1`, `CCOc1ccccc1NC(=O)Cn1nc(C(F)F)cc1C` is higher in “% Inhibition @ 10 uM” value: 1.58% for the first, 4% for the second.

Compared with `COc1cc(/C=C2/C(=O)N(c3ccc([N+](=O)[O-])cc3)N=C2C)cc(Cl)c1O`, `COc1ccc(/C=C2/S/C(=N\c3ccccc3)N(C)C2=O)cc1C` is higher in “% Inhibition @ 10 uM” value: -4.61% for the first, -2.83% for the second.

First: Cn1c(=O)[nH]c(=O)c2c1nc(NCc1ccccc1)n2CC(O)c1ccccc1 (stereo not drawn)
Second: C=C(C)Cn1c(C(O)c2ccccc2)nc2ccccc21 (stereo not drawn)
The “% Inhibition @ 10 uM” value of the first is lower: 0.627% for the first, 1.12% for the second.

First: C=CCc1cccc2cc(C(=O)O)c(=O)oc12
Second: O=C(O)c1cccc(-n2cccc2/C=C2/NC(=O)N(Cc3ccccc3F)C2=O)c1
The “% Inhibition @ 10 uM” value of the first is lower: -5.94% for the first, 4.85% for the second.

Compared with `O=S(=O)(NCc1cccs1)c1cccc(S(=O)(=O)c2ccc(Br)cc2)c1`, `N#C/C(=C\c1ccc(Br)cc1)c1nc(-c2ccc(-c3ccccc3)cc2)cs1` is higher in “% Inhibition @ 10 uM” value: 0.389% for the first, 1.91% for the second.

Going from `c1ccc(N2CCN(c3cc(-n4cccn4)ncn3)CC2)cc1` to `Cc1nc2scc(C)n2c(=O)c1S(=O)(=O)N1CCN(Cc2ccccc2)CC1`, the “% Inhibition @ 10 uM” value falls from -0.636% to -5.67%.

Going from `CCOc1ccc(-c2[nH]nc3c2C(c2ccc(F)cc2)NC3=O)cc1` (stereo not drawn) to `COc1ccc(C2C(C#N)=C(N)OC3=C2C(=O)CCC3)cc1COc1ccccc1Br` (stereo not drawn), the “% Inhibition @ 10 uM” value rises from -1.54% to -0.105%.

First: CC1(C)OC(=O)C(=Cc2ccc(Cl)cc2Cl)C(=O)O1
Second: Cc1cc(C(C)(C)C)cc(C)c1S(=O)(=O)N1CC(=O)Nc2ccccc21
The “% Inhibition @ 10 uM” value of the first is lower: -7.23% for the first, -5.58% for the second.

First: CCC1CCC(N2CCN(c3ccccc3F)CC2)CC1 (stereo not drawn)
Second: CCC1CCC(N(C)CCN(C)C)CC1 (stereo not drawn)
The “% Inhibition @ 10 uM” value of the first is lower: -1.41% for the first, 1.74% for the second.

First: COc1ccc(NC(=O)C2C3CCC(C3)C2C(=O)O)cc1OC (stereo not drawn)
Second: COc1ccc(-c2c(C)nn(Cc3ccccc3)c2N)cc1OC
The “% Inhibition @ 10 uM” value of the first is lower: -3.49% for the first, -1.11% for the second.

Compared with `c1ccc2c(c1)CC(NCc1ccc3c(c1)OCO3)C2`, `O=C(CC12CC3CC(CC(C3)C1)C2)Nc1c(O)c2ccccc2oc1=O` is higher in “% Inhibition @ 10 uM” value: -0.292% for the first, 0.974% for the second.

Going from `CCOC(=O)C1=C(CC)OC(N)=C(C#N)C1c1ccc(F)cc1F` (stereo not drawn) to `CCCc1nn(C)c(C(=O)Nc2cccc(OC)c2)c1Cl`, the “% Inhibition @ 10 uM” value falls from 6.18% to -1.84%.

Compared with `CNc1nc(Cl)nc(Nc2ccccc2C#N)n1`, `COc1ccccc1Cn1cnc2c1c(=O)n(C)c(=O)n2C` is lower in “% Inhibition @ 10 uM” value: -0.999% for the first, -3.27% for the second.

For `COc1cc(/C=C(\C#N)[N+](=O)[O-])ccc1O`, the “% Inhibition @ 10 uM” value was 0.705%.
